Results on two compounds are retold here after patent US20230052528A1 (priority 2019, published 2023).

In this assay the target is T1, Taspase-1 in transfected HEK-293T cells (Homo sapiens, UniProt Q9H6P5).
T1 sequence (Q9H6P5 1-233 limits assumed): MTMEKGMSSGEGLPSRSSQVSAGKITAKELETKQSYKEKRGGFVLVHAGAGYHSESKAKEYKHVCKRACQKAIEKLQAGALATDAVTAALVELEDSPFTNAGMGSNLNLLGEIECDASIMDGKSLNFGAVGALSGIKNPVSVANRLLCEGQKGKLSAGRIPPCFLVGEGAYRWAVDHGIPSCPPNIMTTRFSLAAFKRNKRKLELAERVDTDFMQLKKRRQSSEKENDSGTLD
T1 sequence (Q9H6P5 234-420 limits assumed): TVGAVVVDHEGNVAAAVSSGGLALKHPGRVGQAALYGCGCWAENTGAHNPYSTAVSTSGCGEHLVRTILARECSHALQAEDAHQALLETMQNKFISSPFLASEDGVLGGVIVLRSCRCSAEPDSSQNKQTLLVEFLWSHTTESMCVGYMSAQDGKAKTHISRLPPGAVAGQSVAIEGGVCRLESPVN
Put plainly: cell-based.

The compound `C=CS(=O)(=O)N1CCN(Cc2ccc(OC(F)(F)F)c(F)c2)[C@@H](CCO)C1` [SMDC069, 2-[(2S)-4-(ethenesulfonyl)-1-{[3-fluoro-4-(trifluoromethoxy)phenyl]methyl}piperazin-2-yl]ethan-1-ol] yielded an IC50 of 2 to 6 µM.

`C=CS(=O)(=O)N1CCN(Cc2ccc(OC(F)(F)F)c(F)c2)[C@@H](COCc2cn[nH]c2)C1` [SMDC203, (R)-2-(((1H-pyrazol-4-yl)methoxy)methyl)-1-(3-fluoro-4-(trifluoromethoxy)benzyl)-4-(vinylsulfonyl)piperazine]: it took 2.3 µM to reach half-maximal inhibition (IC50).
